Where “and” joins values, the source holds several entries; their conditions need not be identical. Equal values may be shown once. The whole screen tested about 410,000 compounds, of which about 6,400 (1.6%) were called active. The inconclusive results got no clear call from the source; some entries with a clear call stand among them for comparison. Calls come from the whole dose curve; as a rule, active = well fitted inhibition curve with a large enough effect; inconclusive = small, poorly fitted or top-dose-only effect; inactive = no such curve, though single readings can be large or run the other way. Potencies beside an inconclusive call are fits to weak or partial responses and may not hold up.
These compounds were tested against Glucagon-like peptide 1 receptor (Homo sapiens) (UniProt P43220) (assay: qHTS of GLP-1 Receptor Inverse Agonists (Inhibition Mode)). Settings: HEK293 GLP-1R CRE-luciferase, luminescence, 24 h, GLP-1R form is constitutively active; activity change, negative = inhibition: at 38.3 µM (top of the series) unless noted.
UniProt P43220, sequence (P43220 whole entry, looked up): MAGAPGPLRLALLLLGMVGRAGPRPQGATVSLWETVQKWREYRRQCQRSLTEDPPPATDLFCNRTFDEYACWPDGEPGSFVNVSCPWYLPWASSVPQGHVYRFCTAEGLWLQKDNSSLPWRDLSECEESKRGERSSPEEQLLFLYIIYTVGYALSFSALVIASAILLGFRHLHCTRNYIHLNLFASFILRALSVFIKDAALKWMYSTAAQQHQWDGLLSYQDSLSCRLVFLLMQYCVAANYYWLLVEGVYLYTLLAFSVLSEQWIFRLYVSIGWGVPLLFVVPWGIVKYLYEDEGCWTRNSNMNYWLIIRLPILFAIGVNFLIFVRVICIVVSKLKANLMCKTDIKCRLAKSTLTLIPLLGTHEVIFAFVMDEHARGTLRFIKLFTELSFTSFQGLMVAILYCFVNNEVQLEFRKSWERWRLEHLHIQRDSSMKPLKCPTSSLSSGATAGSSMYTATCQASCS
How it was run: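 Stable HEK293 clone (constitutively active GLP-1R + cAMP-response luciferase); 200 cells/uL plated, 12 h pre-culture, compound 24 hr, 37 deg C/5% CO2; detection reagent 12 min RT; luminescence.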
% is set by controls: 0 for no effect and ±100 for the full control effect; potency is the fitted concentration of half-maximal effect; tags give direction and shape of the fitted curve.
Note: nearly all actives have a fitted effect of over 55% in size.

Structure (SMILES) | Potency | activity change, negative = inhibition
C=CCC1(CC=C)CCCN1C(=O)c1cc(COc2ccc(F)c(F)c2)on1 | active: 2.82 µM | –
CC(C)NC(C(=O)Nc1cc(Cl)cc(Cl)c1)c1ccccc1 (stereo not drawn) | active: 7.94 µM | –
CC(CC(=O)Nc1ccc2c(c1)c(=O)n(C)n2-c1ccccc1)c1ccccc1 (stereo not drawn) | inconclusive: 5.01 µM [inhibitor, partial curve] | –
N#Cc1ccc(-c2csc(NNC(=O)c3ccc(Br)cc3)n2)cc1 | inconclusive: 3.55 µM [inhibitor, partial curve, poor fit] | –
O=C(CSc1nc2c(oc3ccccc32)c(=O)[nH]1)Nc1cccc(Cl)c1 | inconclusive: 28.2 µM [inhibitor, single point] | –
CN(C)c1cccc(C(=O)Nc2ccc(-c3nc4ccccc4s3)cc2)c1 | inconclusive: 2.51 µM [inhibitor, partial curve] | –
COc1ccccc1Nc1nc2ccccc2n2cnnc12 | – | inactive: 50.6%
C=C(C)C1CC=C(C)/C(=N\NC(=O)CCc2ccccc2)C1 (stereo not drawn) | inconclusive: 10 µM [inhibitor, partial curve, poor fit] | –
Cc1c(Cl)cccc1NC(=O)CSc1cc(-c2ccccc2)ncn1 | – | inactive: 2.2%
Cc1nc(SCC(=O)Nc2ccc(F)cc2)c(C#N)c(C)c1CC(=O)c1ccc(Br)cc1 | – | inactive: -3.64%
Cc1ccccc1CC(=O)N1CCCc2ccccc21 | inconclusive: 28.2 µM [inhibitor, single point] | –
O=C(Nc1ccc2c(c1)C(=O)NC2=O)c1cc(Cl)ccc1Cl | – | inactive: 9.26%
CCCCOC(=O)Nc1ccc(S(=O)(=O)Nc2ccc([N+](=O)[O-])cc2)cc1 | inconclusive: 28.2 µM [inhibitor, single point] | –
COc1cccc(NC(=O)c2ccc(CNS(=O)(=O)c3ccc4c(c3)C(C)(C)C(=O)N4C)cc2)c1 | inconclusive: 28.2 µM [inhibitor, single point] | –
Cc1ccc(N/N=C(\C#N)C(=N)N2CCCCC2)cc1 | inconclusive: 8.91 µM [inhibitor, single point] | –
CNS(=O)(=O)c1cccc(C(=O)OCC(=O)C23CC4CC(CC(C4)C2)C3)c1 | inconclusive: 12.6 µM [inhibitor, single point] | –
Cc1c(C(=O)Nc2ccccc2N2CCN(C)CC2)oc2ccc(F)cc12 | inconclusive: 22.4 µM [inhibitor, single point] | –
CCC(=O)NC(c1cccc([N+](=O)[O-])c1)c1c(OC(C)=O)ccc2ccccc12 (stereo not drawn) | inconclusive: 28.2 µM [inhibitor, single point] | –
CN(c1ccc(OCCOc2ccccc2Cl)cc1)S(=O)(=O)c1ccccc1 | inconclusive: 35.5 µM [inhibitor, partial curve, poor fit] | –
Cc1ccc(C)c(N(C(=O)c2nsc(Cl)c2Cl)C(C(=O)NC2CCCC2)c2ccc(O)cc2)c1 (stereo not drawn) | active: 5.62 µM | –
Cc1cc2ccccc2n1-c1ccc(C(=O)N2CCC(C(=O)NCc3ccc(F)cc3)CC2)s1 | inconclusive: 2.82 µM [inhibitor, single point] | –

Structure (SMILES) | Potency | activity change, negative = inhibition
COC(=O)c1c(SCC(=O)Nc2ccccc2OC)[nH]c2ccccc2c1=O | inconclusive: 28.2 µM [inhibitor, single point] | –
CC1CCCN(c2nc(N(C)c3ccccc3)nc(N)c2[N+](=O)[O-])C1 (stereo not drawn) | inconclusive: 28.2 µM [inhibitor, single point] | –
O=C1[C@H]2[C@@H](c3ccc(C(F)(F)F)cc3)N[C@]3(CCCN(Cc4ccc(Br)cc4)C3=O)[C@H]2C(=O)N1Cc1ccccc1 | active: 2.82 µM | –
O=c1c2ccccc2nc(/C=C/c2ccc(Br)cc2)n1CCO | inconclusive: 28.2 µM [inhibitor, single point] | –
COc1ccc(CNC(=O)Cn2ccc3cc(S(=O)(=O)N4CCCCCC4)ccc32)c(OC)c1 | inconclusive: 20 µM [inhibitor, single point] | –
O=C(COc1ccccc1-c1ccccc1)N/N=C/c1cccc2ccccc12 | inconclusive: 1 µM [inhibitor, full curve, poor fit] | –
Cc1ccc(C)c(N2CCN(C(=O)COc3cc(=O)n(C)c4ccccc34)CC2)c1 | – | inactive: 3.2%
Cc1ccc(C)c(CN2C(=O)c3ccccc3S(=O)c3ccc(C(=O)NCc4ccco4)cc32)c1 (stereo not drawn) | inconclusive: 31.6 µM [inhibitor, single point] | –
COCCn1c(-c2ccc(Cl)cc2)cnc1SCC(=O)NCc1cccs1 | inconclusive: 8.91 µM [inhibitor, partial curve, poor fit] | –
CCc1ccc2c(c1)NC(=O)C2(C)Cc1ccccc1Cl (stereo not drawn) | inconclusive: 28.2 µM [inhibitor, single point] | –
Cc1ccc(NC(=O)Cn2cc(S(=O)(=O)NC(C)C)c(S(=O)(=O)NC(C)C)c2)cc1Cl | inconclusive: 11.2 µM [inhibitor, partial curve, poor fit] | –
CCO[C@@H]1OC(C(=O)Nc2ccccc2)=C[C@H](c2csc3ccccc23)[C@H]1CCCO | inconclusive: 28.2 µM [inhibitor, single point] | –
C[C@@H]1CN([C@H](C)CO)C(=O)c2c(c3ccccc3n2C)-c2ccccc2CO[C@@H]1CN(C)C(=O)Nc1ccc2c(c1)OCO2 | inconclusive: 7.94 µM [inhibitor, partial curve, poor fit] | –
COc1ccc(NC(=O)/C(Cl)=C(/Cl)S(=O)Cc2ccc(Cl)cc2)cn1 (stereo not drawn) | inconclusive: 3.98 µM [inhibitor, full curve, poor fit] | –
O=C1Nc2cc(Cl)ccc2Oc2cc(Oc3ccccc3)ccc21 | inconclusive: 3.16 µM [inhibitor, full curve] | –
Cc1ccc([N+](=O)[O-])cc1NC(=O)CN(C(=O)c1ccc(Cl)cc1)C1CCCCC1 | inconclusive: 12.6 µM [inhibitor, partial curve, poor fit] | –
O=C1C=C(c2ccccc2)C[C@@H](c2ccc3c(c2)OCO3)C1 | inconclusive: 28.2 µM [inhibitor, single point] | –
Cc1ccc(N(C)S(=O)(=O)c2cccc(C(=O)NCC(c3ccco3)N3CCCC3)c2)cc1 (stereo not drawn) | active: 10 µM | –
Cc1c(C)c2ccc(OCC(=O)NCCN3CCOCC3)c(C)c2oc1=O | – | inactive: 116%
COc1ccc(C(=O)CCC(=O)NCCc2ccccc2F)cc1 | – | inconclusive: -42% [inhibitor]
COc1ccc(-c2cc(C(=O)N3CCN(c4cccc(C)c4C)CC3)c3ccccc3n2)cc1OC | inconclusive: 28.2 µM [inhibitor, single point] | –

Structure (SMILES) | Potency | activity change, negative = inhibition
C1CCC(C(CC2CCCCN2)C2CCCCC2)CC1 (stereo not drawn) | inconclusive: 11.2 µM [inhibitor, partial curve, poor fit] and inconclusive: 10 µM [inhibitor, partial curve, poor fit] | –
C/C(=N\NC(=O)CN1CCCCC1)c1ccccc1O | inconclusive: 31.6 µM [inhibitor, single point] | –
FC(F)(F)Sc1ccc(NC(=S)NCc2ccccc2)cc1 | inconclusive: 10 µM [inhibitor, partial curve, poor fit] | –
COc1ccc(CCNc2oc(/C=C/c3ccc(OC)c(OC)c3)nc2C#N)cc1 | inconclusive: 28.2 µM [inhibitor, single point] | –
Cc1c(C(=O)N(Cc2ccco2)Cc2cccs2)oc2ccccc12 | inconclusive: 11.2 µM [inhibitor, single point] | –
CCc1sc(C(=O)N2CCN(c3ncccn3)CC2)cc1Br | inconclusive: 28.2 µM [inhibitor, single point] | –
CC(=O)c1c(C)n([O-])c2cc(F)c(F)cc2[n+]1=O | inconclusive: 28.2 µM [inhibitor, single point] | –
CN(C)c1cccc(C(=O)OCC(=O)Nc2ccccc2-c2ccccc2)c1 | – | inactive: 2.66%
O=C(NCCN1C(=O)S/C(=C\c2ccc(Cl)c(Cl)c2)C1=O)c1cnccn1 | – | inactive: -8.21%
O=C(CCc1ccccc1)Nc1ccccc1C(=O)NCc1ccco1 | inconclusive: 10 µM [inhibitor, partial curve, poor fit] | –
Cc1ccsc1C(=O)NCc1ccccc1Cl | inconclusive: 7.08 µM [inhibitor, partial curve, poor fit] | –
O=C(Nc1ccccc1F)NC1CCCCCCC1 | inconclusive: 28.2 µM [inhibitor, single point] | –
COc1ccc(OCc2nc(-c3ccc(OC)c(OC)c3)no2)cc1 | – | inactive: 1.58%
CCN1CC2=C(OC(N)=C(C#N)C2c2cccs2)/C(=C/c2cccs2)C1 (stereo not drawn) | inconclusive: 28.2 µM [inhibitor, single point] | –
CC(=O)Nc1ccc(C)cc1-c1nc2ccccc2n(Cc2cccc(Br)c2)c1=O | – | inactive: -3.65%
Cc1ccc(NC(=S)N(CCN(C)C)C(C)c2ccco2)c(C)c1 (stereo not drawn) | inconclusive: 28.2 µM [inhibitor, single point] | –
O=C(O)/C=C\C(=O)Nc1ccc(N2CCN(c3ccc(Cl)cc3)CC2)cc1 | inconclusive: 2.51 µM [inhibitor, full curve, poor fit] | –
Cc1cccc(N=C2NN=C(c3c[nH]c4ccccc34)CS2)c1 | inconclusive: 10 µM [inhibitor, single point] | –
CCCN(CCC)c1ccc(/C=C/c2ccc3cc(OCC)ccc3n2)cc1 | inconclusive: 28.2 µM [inhibitor, single point] | –
CCCCNC(=O)c1onc(CSc2cccc3ccccc23)c1C(=O)O | inconclusive: 20 µM [inhibitor, single point] | –
Cc1ccc(OCC(=O)Nc2nnc(SCc3cc(=O)n4cc(C)ccc4n3)s2)cc1 | – | inactive: 6.51%
